In all, about 340,000 compounds went through this assay and about 6,900 (2%) were called active. Rule as the data show it: active = inhibition above about 30%; inactive = below that, where a call was filed. The entries are a selection whose mix differs from that of the whole data set. Where no call is shown, the source filed none.
These compounds were tested against D(2) dopamine receptor (Homo sapiens) (UniProt P14416) (assay: HTS Assay for Allosteric Antagonists of the Human D2 Dopamine Receptor: Primary Screen for Antagonists). Settings: HEK293 TREx D2 cells, calcium flux, dopamine EC80; at 10 µM; stronger effect = higher value.
Outline: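 HEK293 T-REx D2 cells, tet-induced, calcium dye no-wash. Cpd pintool add, 180 s kinetic, then EC80 DA, 180 s kinetic. Ca flux read.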
Also: 0% is about no effect.

Chain of UniProt P14416 (P14416 whole entry, looked up): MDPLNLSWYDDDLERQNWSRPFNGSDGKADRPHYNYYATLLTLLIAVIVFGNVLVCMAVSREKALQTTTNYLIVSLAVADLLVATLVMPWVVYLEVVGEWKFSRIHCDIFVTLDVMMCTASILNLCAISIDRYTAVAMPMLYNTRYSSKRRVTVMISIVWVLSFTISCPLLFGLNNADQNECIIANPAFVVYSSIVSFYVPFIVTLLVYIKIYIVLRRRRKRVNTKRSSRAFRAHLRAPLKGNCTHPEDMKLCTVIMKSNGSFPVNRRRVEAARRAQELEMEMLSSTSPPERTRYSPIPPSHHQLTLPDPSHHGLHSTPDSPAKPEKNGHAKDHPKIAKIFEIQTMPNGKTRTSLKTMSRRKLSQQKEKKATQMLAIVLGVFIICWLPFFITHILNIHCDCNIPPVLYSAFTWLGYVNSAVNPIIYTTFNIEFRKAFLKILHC

Row | Structure (SMILES) | inhibition
1 | OCCOCCN1CCN(C(c2ccccc2)c2ccc(Cl)cc2)CC1 (configuration not stated) | active: 72%
2 | O=C(O)c1ccc(NC(=O)c2cn(-c3ccccc3)nc2-c2ccc(Br)cc2)cc1 | 4.05%
3 | COc1ccc(-c2noc(COc3ccc(Br)cc3C)n2)cc1OC | 15%
4 | c1ccc(-c2nnc(CN3CCN(c4ccccc4)CC3)o2)cc1 | -8.94%
5 | CCc1cccc(C)c1NC(=O)Cn1ccn(Cc2ccc(Cl)cc2)c(=O)c1=O | 19%
6 | COc1ccc(NC(=O)CN(C)S(=O)(=O)c2cnc[nH]2)cc1Cl | -13.8%
7 | Cc1ccc(-c2[nH]c(-c3ccccc3)nc2SCC(=O)NCC2CCCO2)cc1 (configuration not stated) | 23.8%
8 | COc1ccc(OC)c(CCNC(=O)C2=C(C)C(=O)OC23CCC(C)CC3)c1 (configuration not stated) | -8.26%
9 | O=C(Cn1nc(C(F)(F)F)c2c1CCC2)Nc1ccc(Cl)cc1 | 8.8%
10 | CCN(CC)c1ccc2cc(-c3nc4ccccc4[nH]3)c(=O)oc2c1 | active: 76.3%
11 | Cc1cc(C)c2c(CC(=O)Nc3ccc(S(=O)(=O)Nc4ncccn4)cc3)coc2c1 | -1.04%
12 | O=c1[nH]cnc2c1ncn2[C@@H]1C[C@@H](O)[C@H](CO)O1 | active: 38.4%
13 | CCN(Cc1ccccc1)C(=O)CN1C(=O)COc2ccc(S(=O)(=O)N(CC)CC)cc21 | -3.51%
14 | COc1ccccc1Nc1nc(-c2ccccc2Cl)c2cc(Br)ccc2n1 | -10.3%
15 | Cc1ccc(C)c(N2CCN(C(=O)CCn3c(=O)c4cccn4c4cccnc43)CC2)c1 | -2.52%
16 | COc1ccccc1NC(=O)CCS(=O)(=O)c1cc2c3c(c1)CCN3C(=O)CC2 | 3.54%
17 | O=C(c1cccs1)N1CCN(CCc2ccccc2)CC1 | active: 42.5%
18 | O=C(NCc1ccccc1Cl)c1cc(=O)[nH]c2ccc(S(=O)(=O)N3CCCCC3)cc12 | 19.7%
19 | CCC1CCCCN1C(=O)c1nn(-c2ccc(OC)cc2)c(=O)c2c1c1ccccc1n2C (configuration not stated) | 3.92%
20 | COC(=O)c1cc(NC(=O)c2sc3ncn(Cc4cccc(F)c4)c(=O)c3c2C)cc(C(=O)OC)c1 | -14.1%
21 | CCOc1ccc(C(=O)NCCn2cc(SCC(=O)Nc3ccccc3)c3ccccc32)cc1 | -9.37%
22 | Cc1ccc(-n2c(SCC(=O)NCc3ccccc3)nc3c([nH]c4ccccc43)c2=O)cc1 | 3.09%
23 | COc1cc(CN(C(=O)c2cccc(C)c2)c2ccccn2)cc(OC)c1OC | -12.7%
24 | CC(C)c1ccc2c(c1)-c1ccccc1S(=O)(=O)N2CC(=O)N1CCCCC1 | -23.6%
25 | COc1cc(Cn2c(=O)sc3ccccc32)ccc1OCCC(C)C | -5.38%
26 | CCCSc1nc(=S)n(Cc2ccccc2)c(C)c1C(C)=O | active: 43.1%
27 | O=C(CSc1ncc(-c2ccccc2)[nH]1)Nc1cccc(C(F)(F)F)c1 | 20.3%

Reference: PubChem BioAssay AID485344 (National Center for Advancing Translational Sciences (NCATS), 2010)
